In PMC6919601, “Identification of Plasmodium dipeptidyl aminopeptidase allosteric inhibitors by high throughput screening” (PLoS ONE, 2019):
About 230 (0.21%) of roughly 110,000 compounds showed an effect of 50% or more. The list shows a part of the results.

molecular target: DPAP1 (Plasmodium falciparum, UniProt Q8IIJ9); test: primary screen, percent inhibition; read by cleavage of a fluorogenic dipeptide substrate; higher = more effect of the substance; parameters: species or system P. falciparum D10 trophozoite lysates; single well
Sequence (Q8IIJ9 whole entry, looked up): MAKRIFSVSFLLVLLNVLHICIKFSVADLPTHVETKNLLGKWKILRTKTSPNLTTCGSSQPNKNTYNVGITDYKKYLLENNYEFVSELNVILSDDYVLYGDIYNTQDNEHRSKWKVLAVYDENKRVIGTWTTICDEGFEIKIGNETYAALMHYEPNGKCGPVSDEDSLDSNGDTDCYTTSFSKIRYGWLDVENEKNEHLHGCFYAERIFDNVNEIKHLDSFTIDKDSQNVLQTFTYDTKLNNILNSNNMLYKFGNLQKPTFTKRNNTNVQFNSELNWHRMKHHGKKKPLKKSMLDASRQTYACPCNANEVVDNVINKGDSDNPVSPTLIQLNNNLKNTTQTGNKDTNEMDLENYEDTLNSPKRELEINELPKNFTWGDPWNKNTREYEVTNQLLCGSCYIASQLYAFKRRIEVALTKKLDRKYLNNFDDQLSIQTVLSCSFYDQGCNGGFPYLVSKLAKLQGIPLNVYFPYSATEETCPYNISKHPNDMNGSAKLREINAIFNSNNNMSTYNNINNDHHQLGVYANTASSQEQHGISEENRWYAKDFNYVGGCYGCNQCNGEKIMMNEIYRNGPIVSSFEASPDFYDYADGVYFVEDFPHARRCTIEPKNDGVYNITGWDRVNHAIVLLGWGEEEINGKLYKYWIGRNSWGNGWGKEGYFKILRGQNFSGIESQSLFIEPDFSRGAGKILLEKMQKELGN
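Also: 30 min substrate incubation versus DMSO and 10 µM JCP410 controls.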

Q: How did the “% Inhibition @ 10 uM” value turn out when `CN(C)c1cccc(C2(c3ccccc3)c3ccccc3Oc3ccccc32)c1` was run?
A: Its value is 0.962%.

Q: For `CC(=O)N1c2ccccc2N=C2CC(C)(C)CC(O)=C2C1c1ccc(Cl)cc1` (centres unmarked), which “% Inhibition @ 10 uM” value is on record?
A: Its value is -1.44%.

Q: For `CCc1nn(CC(=O)NC(C)c2ccccc2)c(=O)c2cc3occc3n12` (centres unmarked), which “% Inhibition @ 10 uM” value is on record?
A: The value was 4.55%.

Q: With `CCN1CCN(C(=O)COc2ccccc2Cl)CC1` as the compound, how does the “% Inhibition @ 10 uM” value read?
A: Its value is -4.21%.

Q: With `Fc1ccccc1C1C2=C(Nc3ncnn31)c1ccccc1OC2c1ccccc1` (centres unmarked) as the compound, how does the “% Inhibition @ 10 uM” value read?
A: The value was 1.73%.

Q: Which “% Inhibition @ 10 uM” value does the source give for `Fc1ccc(N2CCN(Cc3ccc(F)c(F)c3)CC2)cc1` here?
A: Its value is -5.68%.

Q: `O=C(COc1ccc(Cl)cc1Cl)Nc1ccc(N2CCOCC2)c2nonc12` was tested. Which “% Inhibition @ 10 uM” value did it give?
A: Its value is 1.88%.

Q: `Cc1ccccc1NC(=O)/C=C/c1ccccc1Cl` was tested. Which “% Inhibition @ 10 uM” value did it give?
A: The value was 1.35%.

Q: For `CCC(Sc1nncn2c1cc1oc(C)cc12)C(=O)N1CCOCC1` (centres unmarked), which “% Inhibition @ 10 uM” value is on record?
A: Its value is 4.14%.

Q: `COc1cccc(-c2nnc(-c3cc(Cl)cc(Cl)c3OC)o2)c1` was tested. Which “% Inhibition @ 10 uM” value did it give?
A: The value was 2.4%.

Q: How did the “% Inhibition @ 10 uM” value turn out when `CN(C)CC1CSCCC1(O)c1cccc(O)c1` (centres unmarked) was run?
A: The value was -15.4%.

Q: Which “% Inhibition @ 10 uM” value does the source give for `CCOC(=O)N1CCN(C(C)Cc2ccc(F)cc2)CC1` (centres unmarked) here?
A: The value was -3.5%.

Q: Which “% Inhibition @ 10 uM” value does the source give for `CCc1cc2c(cc3c(=O)n(CCCC(=O)NCc4ccccc4Br)ncn32)s1` here?
A: Its value is 1.68%.

Q: `Cn1cc(CC(=O)NCc2ccccn2)c2ccccc21` was tested. Which “% Inhibition @ 10 uM” value did it give?
A: The value was 87.4%.

Q: With `Cc1ccc(C(=O)Nc2ccc(S(=O)(=O)N(C)Cc3ccccc3)cc2)cc1` as the compound, how does the “% Inhibition @ 10 uM” value read?
A: The value was 0.913%.

Q: With `Cc1ccccc1CN1CCN(C(=O)c2cccc(Cl)c2)CC1` as the compound, how does the “% Inhibition @ 10 uM” value read?
A: Its value is -10.2%.

Q: For `Cn1ncc(Cl)c1C(=O)NC1C2CC3CC(C2)CC1C3` (centres unmarked), which “% Inhibition @ 10 uM” value is on record?
A: Its value is 2.38%.

Q: With `O=C(/C=C/c1ccccc1)Nc1cccc2c1C(=O)c1ccccc1C2=O` as the compound, how does the “% Inhibition @ 10 uM” value read?
A: The value was -1.38%.

Q: `Cc1ccccc1NC(=O)CN1C(=O)S/C(=C/c2ccncc2)C1=O` was tested. Which “% Inhibition @ 10 uM” value did it give?
A: The value was 3.17%.

Q: `O=C(NCCCN1CCOCC1)C1CCC(CNS(=O)(=O)c2cccc3nsnc23)CC1` (centres unmarked) was tested. Which “% Inhibition @ 10 uM” value did it give?
A: Its value is -2.25%.

Q: With `COc1ccc(C2CC(C(F)(F)F)n3ncc(C(=O)N4CCOCC4)c3N2)cc1` (centres unmarked) as the compound, how does the “% Inhibition @ 10 uM” value read?
A: The value was 2.7%.

Q: With `Cc1sc(NC(=O)c2cc3ccccc3oc2=O)nc1-c1ccccc1` as the compound, how does the “% Inhibition @ 10 uM” value read?
A: The value was 26.4%.

Q: `Cc1c(Cl)ccc(OCCCCCN2CCOCC2)c1C` was tested. Which “% Inhibition @ 10 uM” value did it give?
A: Its value is -2.74%.

Q: For `O=C(COc1ccc(S(=O)(=O)NC2CCCC2)cc1)Nc1ccc(Cl)cc1Cl`, which “% Inhibition @ 10 uM” value is on record?
A: The value was 5.14%.

Q: Which “% Inhibition @ 10 uM” value does the source give for `Cc1ccc(C(=O)N/C(=C/c2ccccc2F)C(=O)NCCCN(C)C)cc1` here?
A: The value was -2.59%.

Q: With `COc1ccc(C2C(C(C)=O)=C(O)C(=O)N2c2cccnc2)cc1OC` (centres unmarked) as the compound, how does the “% Inhibition @ 10 uM” value read?
A: Its value is -5.3%.

Q: How did the “% Inhibition @ 10 uM” value turn out when `O=C(c1ccc(COc2ccc3ccccc3c2)cc1)N1CCCC1` was run?
A: The value was -3.13%.

Q: How did the “% Inhibition @ 10 uM” value turn out when `CC(C)Cn1c(=O)c2ccccc2n2c(-c3ccccc3O)nnc12` was run?
A: The value was 3.3%.

Q: Which “% Inhibition @ 10 uM” value does the source give for `Cc1ccc(-c2[nH]nc3c2C(c2cccs2)C(C#N)=C(N)O3)cc1` (centres unmarked) here?
A: The value was 1.47%.

Q: `CCN(CC)CCNC(=O)Cn1nc(C)n2c(cc3c(OC)cccc32)c1=O` was tested. Which “% Inhibition @ 10 uM” value did it give?
A: Its value is 0.0198%.

Q: Which “% Inhibition @ 10 uM” value does the source give for `COc1ccc(C(=O)N2CCCc3ccccc32)cc1` here?
A: Its value is 0.135%.

Q: How did the “% Inhibition @ 10 uM” value turn out when `O=C(O)c1ccc(N2C(=O)c3ccc(C(=O)O)cc3C2=O)cc1` was run?
A: The value was -0.216%.

Q: For `Cc1ccc(S(=O)(=O)c2nnn3c2nc(NCCC(C)C)c2ccccc23)cc1C`, which “% Inhibition @ 10 uM” value is on record?
A: Its value is -1.37%.

Q: For `Clc1ccc(N2N=C(c3ccccc3)CC2c2ccc(Br)cc2)cc1Cl` (centres unmarked), which “% Inhibition @ 10 uM” value is on record?
A: The value was 0.00784%.

Q: Which “% Inhibition @ 10 uM” value does the source give for `COc1ccc(-c2cc(C(=O)Nc3cc(C)on3)no2)cc1` here?
A: The value was 2.01%.

Q: With `CCOc1ccc(C2c3c(oc4ccccc4c3=O)C(=O)N2c2nc(C)c(C(=O)OC)s2)cc1` (centres unmarked) as the compound, how does the “% Inhibition @ 10 uM” value read?
A: The value was 70.8%.

Q: Which “% Inhibition @ 10 uM” value does the source give for `CC(=O)Nc1ccc(NCN2C(=O)C3C4CCC(C4)C3C2=O)cc1` (centres unmarked) here?
A: Its value is -0.366%.

Q: `COC(=O)c1ccc(COc2ccc(C#N)cc2)o1` was tested. Which “% Inhibition @ 10 uM” value did it give?
A: The value was 3.52%.

Q: Which “% Inhibition @ 10 uM” value does the source give for `CCCN1CCC(NC2CCCCCCC2)CC1` here?
A: Its value is -3.6%.

Q: With `CN(CC(=O)NCc1cccs1)S(=O)(=O)c1cccc2cccnc12` as the compound, how does the “% Inhibition @ 10 uM” value read?
A: Its value is -6.07%.

Q: For `CN(C)c1ccc(-n2nc3ccc4ccccc4c3n2)cc1`, which “% Inhibition @ 10 uM” value is on record?
A: Its value is -4.26%.

Q: How did the “% Inhibition @ 10 uM” value turn out when `O=S(=O)(CCc1nc2ccccc2[nH]1)c1ccc(Cl)cc1` was run?
A: The value was 2.08%.

Q: How did the “% Inhibition @ 10 uM” value turn out when `CCO/C(O)=C1/C(C)=NC(=S)NC1c1ccccc1` (centres unmarked) was run?
A: The value was 4.41%.

Q: For `C=CC(C)N1C(=O)S/C(=C\c2cc(OC)c(N3CCCC3)cc2OC)C1=O` (centres unmarked), which “% Inhibition @ 10 uM” value is on record?
A: Its value is -8.95%.

Q: Which “% Inhibition @ 10 uM” value does the source give for `Cc1ccc(-c2csc(/C(C#N)=C/c3ccco3)n2)c(C)c1` here?
A: The value was 2.54%.

Q: With `COc1cccc(/C=C2/C(=O)ON=C2c2ccccc2)c1OC` as the compound, how does the “% Inhibition @ 10 uM” value read?
A: The value was -0.386%.

Q: For `Cc1oc(-c2ccc(F)cc2)cc1-c1nn2c(-c3ccccc3)nnc2s1`, which “% Inhibition @ 10 uM” value is on record?
A: The value was 4.96%.

Q: Which “% Inhibition @ 10 uM” value does the source give for `CC(C)c1ccc(C(=O)C2CN3CCC2CC3)cc1` (centres unmarked) here?
A: The value was 2.14%.

Q: For `CCCn1c(CCC(=O)O)ccc1-c1ccc(OC)cc1`, which “% Inhibition @ 10 uM” value is on record?
A: The value was 7.04%.

Q: Which “% Inhibition @ 10 uM” value does the source give for `COc1ccc(CN2CCN(Cc3ccco3)CC2)cc1` here?
A: The value was -1.79%.

Q: Which “% Inhibition @ 10 uM” value does the source give for `CCCC1=C(C(=O)OCC)C(c2ccc(Br)cc2)C(C#N)=C(N)O1` (centres unmarked) here?
A: Its value is -10.8%.

Q: `CC(C)c1ccc(CN2CCN(Cc3ccc4c(c3)OCO4)CC2)cc1` was tested. Which “% Inhibition @ 10 uM” value did it give?
A: The value was -0.0404%.

Q: For `Clc1ccc(CCNc2cnnc3c(Cl)cccc23)cc1`, which “% Inhibition @ 10 uM” value is on record?
A: The value was -4.21%.

Q: With `CC(=O)/C(=C1\NC(C)(C)CC12C=CC(=O)C=C2)c1ccccc1` as the compound, how does the “% Inhibition @ 10 uM” value read?
A: The value was -4.49%.

Q: With `CCOc1ccc(S(=O)(=O)N2CCN=C2c2ccccc2)cc1` as the compound, how does the “% Inhibition @ 10 uM” value read?
A: Its value is -5.38%.

Q: `CC1CN(C/C=C/c2ccccc2)CC(C)O1` (centres unmarked) was tested. Which “% Inhibition @ 10 uM” value did it give?
A: Its value is -0.603%.

Q: For `O=C(CSc1n[nH]c(-c2ccccc2)n1)Nc1cccc2ccccc12`, which “% Inhibition @ 10 uM” value is on record?
A: The value was 2.45%.

Q: How did the “% Inhibition @ 10 uM” value turn out when `COc1ccc(C2C(C#N)=C(N)Oc3[nH]nc(C)c32)cc1` (centres unmarked) was run?
A: The value was -0.744%.

Q: Which “% Inhibition @ 10 uM” value does the source give for `Cc1ccccc1C(=O)Nc1ccccc1C(=O)Nc1ccccc1` here?
A: Its value is -5.4%.

Q: For `Cc1cc(Cl)ccc1OC(C)C(=O)Nc1cnn(CCCC(=O)O)c1` (centres unmarked), which “% Inhibition @ 10 uM” value is on record?
A: The value was 17.2%.

Q: How did the “% Inhibition @ 10 uM” value turn out when `CCCS(=O)(=O)NCCc1cc2c(C)ccc(C)c2nc1O` was run?
A: Its value is -6.14%.

Q: With `C=CCNC(=O)c1ccc(Cl)c(Cl)c1` as the compound, how does the “% Inhibition @ 10 uM” value read?
A: Its value is -4.13%.

Q: With `COc1ccc(C(=O)Nc2c(C)ccc3nsnc23)cc1` as the compound, how does the “% Inhibition @ 10 uM” value read?
A: Its value is -2.34%.

Q: How did the “% Inhibition @ 10 uM” value turn out when `Cc1ccc(O)c(C(=O)CC(O)(c2ccccc2)C(F)(F)F)c1` (centres unmarked) was run?
A: The value was -0.582%.

Q: With `COCCNC(=O)c1cnn2c1NC(c1cccc(OC)c1)CC2C(F)(F)F` (centres unmarked) as the compound, how does the “% Inhibition @ 10 uM” value read?
A: The value was 0.0289%.
